In PubChem BioAssay AID686979 (National Center for Advancing Translational Sciences (NCATS), 2013):
Among all 420,000 compounds or so, about 50,000 (12%) were called active. Inconclusive results, whose numbers are uncertain, are shown with a selection of clear calls. The call rests on the fitted dose curve; in most records, active means well fitted inhibition curve with a large enough effect; inconclusive means small, poorly fitted or top-dose-only effect; inactive means flat fitted curve, though single readings scatter. Potencies of inconclusive entries are left out as doubtful fits.

Assay: qHTS for Inhibitors of human tyrosyl-DNA phosphodiesterase 1 (TDP1): qHTS in cells in presence of CPT; further: nearly all actives have a fitted effect of over 55% in size
Settings: chicken DT40 Tdp1-/-;hTDP1 cells + 20 nM CPT, ATP luminescence, 48 h; series mostly up to 46.2 µM
How it was run: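 Cell growth measured by CellTiter-Glo luminescence after a minimum 48 h, 37 C compound exposure with 20 nM CPT in Tdp1-knockout DT40 cells stably expressing hTDP1, seeded 400/well; qHTS titration format.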
Potency means the concentration at half of the fitted maximal effect; tags describe the fitted curve by direction and shape.

Row | SMILES | Potency
1 | COc1ccc(NS(=O)(=O)c2ccc(N/N=C(\C)c3ccncc3)c([N+](=O)[O-])c2)cc1 | active: 11.6 µM
2 | O=C(NC1CC(=O)N(c2ccccc2)C1)C(c1ccccc1)c1ccccc1 (configuration not stated) | inconclusive [inhibitor, single point]
3 | Cc1cc2nnc(SCC(=O)Nc3cccc(S(=O)(=O)N4CCOCC4)c3)n2c2ccccc12 | inactive
4 | CC(O)(c1ccccc1)c1nc(-c2ccc(F)c(Cl)c2)cs1 (configuration not stated) | inconclusive [inhibitor, single point]
5 | Cc1ccc(S(=O)(=O)N2C3CCCCC3O[C@H]2CC(=O)Oc2ccccc2)cc1 (some centres not stated) | inconclusive [inhibitor, partial curve]
6 | O=C(N=C1SC2CS(=O)(=O)CC2N1c1ccccc1)C1CC1 (configuration not stated) | inactive
7 | CCN(CC)c1ccc(-c2nnc(SCC(=O)N(CCOC)c3c(N)n(CC(C)C)c(=O)[nH]c3=O)o2)cc1 | inconclusive [inhibitor, single point]
8 | COC(=O)CSc1nc(COc2ccccc2)nc2ccccc12 | inactive
9 | COC(=O)/C(=C(/F)Sc1cc(C)c(O)c(C)c1)C(F)(F)F | active: 10.3 µM
10 | CC(C)Cn1nc(NC(=O)C2CCCO2)c2cc3ccccc3nc21 (configuration not stated) | inconclusive [inhibitor, single point]
11 | CC1CN(S(=O)(=O)c2cccc(C(=O)Nc3ccccc3N3CCCC3)c2)CC(C)O1 (configuration not stated) | inconclusive [inhibitor, single point]
12 | COc1ccc(N=Cc2sc(O)c3ccccc23)cc1 | inconclusive [inhibitor, single point]
13 | COc1cc(OC)cc(-c2c(Sc3ccccc3)c3cc(-c4ccc(OC)nc4)ccc3n2C)c1 | inactive
14 | Cc1c(CCNC(=O)c2ccc(Br)o2)sc2nc(-c3ccc(Cl)cc3)nn12 | active: 18.4 µM
15 | Cc1ccc(C(=O)N2CCCCC2)cc1NC(=O)c1nsc2ccccc12 | inconclusive [inhibitor, partial curve, poor fit]
16 | Cn1nccc1C(=O)NC1CCCc2c1cnn2-c1ccc(C(C)(C)C)cc1 (configuration not stated) | active: 2.91 µM
17 | CCOC(=O)Cc1csc(NC(=O)c2ccc3c(c2)OCO3)n1 | inconclusive [inhibitor, single point]
18 | CCc1ccc(C(=O)c2cn(CC(=O)Nc3cc(OC)ccc3OC)c3nc(C)ccc3c2=O)cc1 | inconclusive [inhibitor, single point]
19 | CS(=O)(=O)c1ccc(C(=O)OCC(=O)NC(=O)C2CCCCC2)cc1[N+](=O)[O-] | active: 9.2 µM
20 | O=C(COc1ccc(S(=O)(=O)NC2CCCCC2)cc1)NCCC1=CCCCC1 | inconclusive [inhibitor, single point]
21 | COc1ccc(N2CCN(c3cnc4ccccc4n3)CC2)cc1 | inconclusive [inhibitor, single point]
22 | COc1cccc(NC(=S)N(Cc2cccc(Br)c2)CC2CCC(C(=O)O)CC2)c1 (configuration not stated) | inconclusive [inhibitor, single point]
23 | NC(N)=NC(=O)c1nc(Cl)c(N2CCCCCC2)nc1N | active: 7.08 µM
24 | CCc1ccc(N2CC(C(=O)N3CCCCCC3)CC2=O)cc1 (configuration not stated) | inactive

Row | SMILES | Potency
25 | COc1ccc(C(=O)N2CCN(S(=O)(=O)c3ccc4c(c3)OCCO4)CC2)cc1 | inconclusive [inhibitor, single point]
26 | Cc1oc2cc3oc(=O)c(CC(=O)NCc4ccccc4)c(C)c3cc2c1C | active: 6.51 µM
27 | O=[N+]([O-])c1cc(S(=O)(=O)NC2=NCCCCC2)ccc1NCC1CCCCC1 | active: 16.4 µM
28 | S=C(N/N=C/c1ccc(Br)cc1)N1CCCCC1 | active: 1.16 µM
29 | COc1ccccc1C1CCN(c2ccc(CO)cc2[N+](=O)[O-])CC1 | inconclusive [inhibitor, single point]
30 | COc1ccc(NC(=O)N(C)C[C@@H]2OCc3cn(nn3)CCCC(=O)N([C@H](C)CO)C[C@H]2C)c(OC)c1 | inactive
31 | C=CCn1c(CNC(=O)c2ccccc2F)nnc1SCC(=O)N1CCOCC1 | inactive
32 | CCc1ccc(N2C(=O)CN(Cc3cccs3)C2=S)cc1 | inactive
33 | CC(C)c1ccc(NC(=O)C2CCN(C(=O)[C@@H]3Cc4ccccc4CN3)CC2)cc1 | inconclusive [inhibitor, single point]
34 | CCN(CC)C(=O)c1ccc2c(=O)n(Cc3ccc4c(c3)OCO4)c(=S)[nH]c2c1 | active: 14.6 µM
35 | Cc1ccc(N/C(C(Cl)=C(Cl)Cl)=C(/Cl)[N+](=O)[O-])c(C)c1 | active: 23.1 µM
36 | C=CCn1c(CCC(O)COCCCCC)n[nH]c1=S (configuration not stated) | inactive
37 | CC(=O)C1=C(O)C(=O)N(c2ccc(S(N)(=O)=O)cc2)C1c1cccc([N+](=O)[O-])c1 (configuration not stated) | inactive
38 | CCCCn1c(N)c(N(CC(C)C)C(=O)c2cc(-c3ccc(OC)cc3)nc3ccccc23)c(=O)[nH]c1=O | inconclusive [inhibitor, single point]
39 | COc1nc2ccccc2nc1N1CCN(c2ccc(F)cc2)CC1 | inactive
40 | OC1(CN2CCOCC2)C2CN3CCN(C2)CC1(c1ccccc1)C3 (configuration not stated) | active: 29.1 µM
41 | CCc1cc2c(=O)c(-c3cnn(-c4ccccc4)c3)c(C)oc2cc1OCC(=O)Nc1cccc(C)c1 | active: 3.26 µM
42 | O=C(/C=C/c1ccccc1)N/C(=C/c1ccccc1)C(=O)Nc1ccc(C(=O)O)cc1 | inconclusive [inhibitor, single point]
43 | O=C(NCC(c1cccs1)N1CCOCC1)c1ccccc1NS(=O)(=O)c1cc([N+](=O)[O-])ccc1Cl (configuration not stated) | inactive
44 | O=C(CN1C(=O)NC2(CCCCC2)C1=O)Nc1cccc(Cl)c1Cl | inactive
45 | CC1CCN(C(=O)Cn2nnc(-c3ccc([N+](=O)[O-])cc3)n2)CC1 | inactive
46 | CCOC(=O)c1sc(=S)n(C)c1NC(=O)c1ccccc1Cl | inconclusive [inhibitor, single point]
47 | Cc1cc(C)cc(-n2c(C)c3c(C)nnc(C)c3c2C)c1 | active: 8.2 µM
